# Experimental data published in PubChem BioAssay AID602310 (National Center for Advancing Translational Sciences (NCATS), 2012).
# Out of some 410,000 compounds screened, about 310 (0.076%) were called active. The inconclusive results got no clear call from the source; some entries with a clear call stand among them for comparison. Calls follow the shape of the dose curve; as a rule, active = well fitted curve in the direction sought with a large enough effect; inconclusive = small, poorly fitted or top-dose-only effect; inactive = flat fitted curve, though single readings scatter. Potencies beside an inconclusive call are fits to weak or partial responses and may not hold up.
# Target: DNA dC->dU-editing enzyme APOBEC-3G (Homo sapiens) (UniProt Q9HC16)
# Sequence of UniProt Q9HC16 (Q9HC16 whole entry, looked up): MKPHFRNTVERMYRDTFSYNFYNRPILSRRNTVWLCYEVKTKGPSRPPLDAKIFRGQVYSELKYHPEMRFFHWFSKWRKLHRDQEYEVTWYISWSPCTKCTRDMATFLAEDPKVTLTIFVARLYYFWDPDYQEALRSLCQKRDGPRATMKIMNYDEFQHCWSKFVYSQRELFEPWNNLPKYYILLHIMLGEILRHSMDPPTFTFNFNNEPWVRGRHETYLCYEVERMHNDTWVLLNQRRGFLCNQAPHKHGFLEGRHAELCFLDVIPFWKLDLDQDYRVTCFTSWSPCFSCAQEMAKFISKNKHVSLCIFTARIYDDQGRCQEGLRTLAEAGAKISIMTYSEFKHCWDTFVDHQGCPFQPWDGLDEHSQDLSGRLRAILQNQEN
# Experiment: qHTS for Inhibitors of Vif-A3G Interactions: qHTS; also: nearly all actives have a fitted effect of over 60% in size
# Conditions: HeLa A3G-eYFP + Vif (tagged APOBEC3G with the HIV-1 protein that degrades it), YFP fluorescence, overnight; series mostly up to 46.1 µM
# Procedure, shortened: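 Read-out is eYFP fluorescence (Ex 488/Em 500-530) from Vif-expressing HeLa A3G-eYFP cells; more signal means A3G escaped Vif-mediated degradation. Cells plated overnight, compound pinned in, incubated overnight at 37 deg C.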
# Potency is read from the fitted curve at half-maximal effect; tags tell the direction and shape of the fitted curve.
row,Structure (SMILES),Potency
1,N#Cc1c(NC(=O)c2ccc([N+](=O)[O-])o2)sc2c1CCC2,"inconclusive: 6.31 µM [inhibitor, full curve, poor fit]"
2,CCOC(=O)c1ccc(NC(=O)CCc2nc3cccnc3n2Cc2cccs2)cc1,"inconclusive: 35.5 µM [inhibitor, single point]"
3,COCCCN1CC23C=CC(O2)C(C(=O)O)C3C1=O (configuration not stated),inactive
4,CCc1nn2cc(C(=O)c3ccccc3O)cnc2c1-c1ccc(F)cc1,inactive
5,Cc1cc(C)nc(Sc2ncnc3c2oc2ccccc23)n1,"inconclusive: 22.4 µM [inhibitor, single point]"
6,COc1ccc(Cl)c2sc(N(CCN(C)C)C(=O)c3ccc4c(c3)OCCO4)nc12,inactive
7,NC(=O)C1CCN(c2nc(C3CC3)nc3c2nnn3Cc2ccccc2)CC1,inactive
8,N#C/C(=C\c1ccc(-c2ccc(F)cc2)o1)C(=O)Nc1nc(-c2cccs2)cs1,"inconclusive: 12.6 µM [inhibitor, single point]"
9,Cc1cc(-c2nnc(SCC(=O)Nc3ccccn3)o2)no1,inactive
10,CCCc1[nH]nc2c1C(c1ccc(Br)s1)C(C#N)=C(N)O2 (configuration not stated),"inconclusive: 35.5 µM [inhibitor, single point]"
11,O=C(/C=C/c1cc(Br)ccc1O)c1ccco1,"inconclusive: 22.4 µM [inhibitor, single point]"
12,COc1cc2c(cc1OC)CN(C(=O)/C=C/c1cccs1)CC2,"inconclusive: 5.01 µM [inhibitor, partial curve]"
13,COc1ccc(-c2noc(-c3cccs3)n2)cc1OC,inactive
14,Cc1c(N=C2N=C(NC(=O)c3cccs3)c3ccccc32)c(=O)n(-c2ccccc2)n1C,"inconclusive: 7.94 µM [inhibitor, partial curve]"
15,COc1ccccc1/C=C/C=N/n1c(-c2ccc(C)cc2)n[nH]c1=S,"inconclusive: 10 µM [inhibitor, partial curve, poor fit]"
16,O=C(c1ccc(Br)cc1)c1cc([N+](=O)[O-])ccc1N1CCOCC1,"inconclusive: 1.12 µM [inhibitor, full curve, poor fit]"
17,Cc1cccc(NC(=O)c2cccc(N3CCCS3(=O)=O)c2)c1,inactive
18,Cc1sc2nc(SCC(=O)C(C)(C)C)n(Cc3ccco3)c(=O)c2c1C,"inconclusive: 3.55 µM [inhibitor, full curve]"
19,C[C@H](CO)N1C[C@H](C)[C@H](CN(C)S(=O)(=O)c2cccs2)Oc2ccc(NC(=O)Nc3ccc4c(c3)OCO4)cc2CC1=O,inactive
20,Nc1nonc1-c1nc2ccccc2n1CC(=O)Nc1ccccc1C(=O)O,"inconclusive: 8.91 µM [inhibitor, partial curve, poor fit]"
21,CN(C)c1ccc(/C=C/c2c3c(nc4ccccc24)CCCC3)cc1,"inconclusive: 28.2 µM [inhibitor, single point]"
22,CS(=O)(=O)c1cc([N+](=O)[O-])c(Sc2nc3ccccc3[nH]2)c([N+](=O)[O-])c1,"inconclusive: 35.5 µM [inhibitor, partial curve, poor fit]"
23,O=C(/C=C/c1ccccc1)Nc1ncn[nH]1,"inconclusive: 11.2 µM [inhibitor, partial curve]"
24,Nc1ccc(C(=O)NN2C(=O)[C@H](Cl)C2c2ccc(Cl)cc2)cc1 (some centres not stated),"inconclusive: 22.4 µM [inhibitor, single point]"

row,Structure (SMILES),Potency
1,O=S(=O)(Nc1nc2ccccc2nc1Cl)c1ccccc1C(F)(F)F,inactive
2,O=C(/C=C/c1cccc([N+](=O)[O-])c1)n1cnc2ccccc21,"inconclusive: 3.16 µM [inhibitor, single point]"
3,COCCNC(=O)c1c(N)n(/N=C/c2ccc(F)cc2)c2nc3ccccc3nc12,inactive
4,CCOC(=O)C1CCN(c2nc(C)nc3c2oc2ccccc23)CC1,"inconclusive: 20 µM [inhibitor, single point]"
5,Cc1nc([N+](=O)[O-])cn1CC(=O)c1ccc2c(c1)OCCO2,inactive
6,Cc1ccnc(N/C=C(\C#N)c2nc(-c3cccc(Br)c3)cs2)c1,"inconclusive: 22.4 µM [inhibitor, partial curve, poor fit]"
7,Cc1cccc(N2CCN(C(=O)c3cccc(N4CCCC4=O)c3)CC2)c1C,"inconclusive: 35.5 µM [inhibitor, single point]"
8,CN(CCO)c1cc(Sc2nc3ccccc3s2)c2nonc2c1[N+](=O)[O-],"inconclusive: 35.5 µM [inhibitor, single point]"
9,CCN(CC)c1ccc(/C=C/c2cc(Cl)nc3ccccc23)cc1,"inconclusive: 17.8 µM [inhibitor, single point]"
10,O=C(Nc1nc([C@@H]2O[C@H](CO)[C@@H](O)[C@H](O)[C@H]2O)cs1)NC(c1ccccc1)c1ccccc1,inactive
11,O=C1c2cccnc2-c2ncccc21,inactive
12,Cc1cc(/C=C/c2ccnc3ccccc23)ccc1N(C)C,"inconclusive: 14.1 µM [inhibitor, partial curve, poor fit]"
13,CCCCN=CC1=C(O)CC(c2ccccc2)CC1=O (configuration not stated),"inconclusive: 35.5 µM [inhibitor, single point]"
14,CCCCCn1c(=NC(C)=O)c(C#N)cc2c(=O)n3ccccc3nc21,inactive
15,COc1ccccc1CNC(=O)CCn1c(=O)c2ccccc2n(CC(=O)Nc2ccc(C)cc2)c1=O,"inconclusive: 28.2 µM [inhibitor, single point]"
16,CC(=O)N1CCc2c(sc(NC(=O)c3ccc4c(c3)OCCO4)c2C#N)C1,"inconclusive: 2.82 µM [inhibitor, full curve]"
17,Cc1nc2c3cc(F)ccc3n(Cc3ccccc3)c2s1,active: 6.31 µM
18,CC1=NN(c2ccccc2)C(=O)/C1=C/c1cccc(C)c1,"inconclusive: 35.5 µM [inhibitor, single point]"
19,O=C(N/N=C/c1ccc([N+](=O)[O-])o1)c1cc2c(ccc3ccccc32)o1,"inconclusive: 15.8 µM [inhibitor, partial curve, poor fit]"
20,N#CC1=C(N)Oc2cc(N)ccc2C1c1ccccc1F (configuration not stated),"inconclusive: 7.08 µM [inhibitor, partial curve, poor fit]"
21,Cc1cc(N(C)C)ccc1/C=C/c1ccnc2ccccc12,inactive
22,CSc1nc2c([nH]1)c(=S)n(C)c(=O)n2C,"inconclusive: 5.01 µM [inhibitor, full curve]"
23,c1ccc(C2OC3c4cccc5cccc(c45)C3N2c2ccccc2)cc1 (configuration not stated),"inconclusive: 31.6 µM [inhibitor, single point]"
24,CSc1nc(N)c(C#N)c(-c2ccccc2Cl)c1C#N,"inconclusive: 11.2 µM [inhibitor, partial curve]"

row,Structure (SMILES),Potency
1,O=c1c2ccccc2nc(SCCN2CCCCC2)n1CCc1ccccc1,inactive
2,Cc1ccc(C(=O)N/N=C\c2ccc(-c3ccc(Cl)c(Cl)c3)o2)cn1,"inconclusive: 12.6 µM [inhibitor, single point]"
3,COc1ccc(C(=O)/C=C/c2cccc(OCc3ccccc3)c2)cc1CSCC(=O)O,"inconclusive: 28.2 µM [inhibitor, single point]"
4,c1ccc(CN2CCc3[nH]c4ccccc4c3C2)cc1,inactive
5,Cc1c(Cl)cccc1NC(=O)c1ccc2c(c1)nnn2C1CCCC1,"inconclusive: 2.51 µM [inhibitor, full curve, poor fit]"
6,CCOC(=O)CCSc1n[nH]c(=S)s1,inactive
7,COc1ccc2[nH]c(C)c(CCN(Cc3cccs3)C(=S)Nc3ccc(F)cc3)c2c1,inactive
8,O=C(N/N=C/c1ccc2c(c1)OCO2)c1cc(-c2ccco2)nc2ccccc12,"inconclusive: 4.47 µM [inhibitor, partial curve]"
9,O=C(CCS(=O)(=O)c1ccccc1)N(Cc1cccnc1)c1nc2c(Cl)cccc2s1,"inconclusive: 14.1 µM [inhibitor, single point]"
10,Cc1ccc(C(=O)Nc2sc(Cc3ccc4c(c3)OCO4)c(C)c2C(N)=O)cc1,"inconclusive: 5.01 µM [inhibitor, full curve, poor fit]"
11,O=c1c2c([nH]c3ccc(Br)cc13)CCCC2,inactive
12,CCN1CCN(C(c2ccc(C(F)(F)F)cc2)c2ccc3cccnc3c2O)CC1 (configuration not stated),inactive
13,CCOC(=O)c1cc([N+](=O)[O-])sc1N,inactive
14,Cn1nnnc1Sc1ncnc2scc(-c3cccc(Br)c3)c12,"inconclusive: 15.8 µM [inhibitor, single point]"
15,COc1cc(/C=C(\C#N)C(=O)NCCc2ccccc2)cc(OC)c1O,"inconclusive: 25.1 µM [inhibitor, single point]"
16,Cc1ccc(C(=O)Nc2ncc3c(Cl)cccc3n2)cc1,"inconclusive: 11.2 µM [inhibitor, single point]"
17,S=C1SCN(Cc2cccs2)CN1Cc1cccs1,"inconclusive: 35.5 µM [inhibitor, single point]"
18,Cc1ccc(-c2nn(-c3ccccc3)cc2C=O)o1,"inconclusive: 35.5 µM [inhibitor, single point]"
19,COc1ccc(CN2C(=O)C(CC(=O)NCCN3CCOCC3)CC(C(=O)N(C)C)=C2C)cc1 (configuration not stated),inactive
20,N#Cc1ccccc1OCCN1C(=O)c2ccccc2C1=O,inactive
21,O=C1N/C(=N\S(=O)(=O)c2ccccc2)S/C1=C\c1cc([N+](=O)[O-])ccc1O,inactive
22,COCCn1c(C)cc(C2=NNC(=Nc3ccccc3)SC2)c1C,inactive
23,CCOC(=O)C1=C(C)N=C(/N=C/N(C)C)SC1c1ccccc1 (configuration not stated),"inconclusive: 35.5 µM [inhibitor, single point]"
24,CC1=Nc2cc(C(=O)NC3CCCCC3)ccc2Sc2ccc(Cl)cc21,"inconclusive: 0.562 µM [inhibitor, full curve, poor fit]"
